# Laboratory results: the supplement of paper PMC10037445
# “And” between values parts separate entries of the source, which are not always exact repeats. Identical values can stand only once. In all, about 2,900 compounds were measured (“NF-kB SEAP reporter activity, fold change vs agonist alone”: median about 0.99, highest 2% from about 2.6 on). The list shows a part of the results.
# Tests used:
# RAW-Dual [1] = test: NF-kB SEAP reporter activity, fold change vs agonist alone; cytotoxicity flag (confluency mask): cytotoxic (confluency <70% of control); higher = enhanced NF-kB activity; details: agonist: LPS (TLR4) 0.1 ug/mL
# Outline: (§1)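 Cytotoxic wells were those whose IncuCyte confluency was below 70% of agonist controls in both mask sets. The cells were RAW-Dual macrophages at 50,000 cells/well in DMEM on 384-well plates, dosed with 50 nL of library stock by pin tool, stimulated with a PRR agonist 1 h later, and kept at 37 °C, 5% CO2 for 20 hours. IRF and NF-κB reporter activity, as fold change over agonist-alone wells, came from supernatant read by QuantiLuc luminescence and QuantiBlue absorbance, respectively.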
# RAW-Dual [2] = test: NF-kB SEAP reporter activity, fold change vs agonist alone; higher = enhanced NF-kB activity; details: library stock concentration (final ~1000-fold dilution): 10 mM, cytotoxicity flag (confluency mask): not cytotoxic
# Outline: as §1
# RAW-Dual [3] = test: NF-kB SEAP reporter activity, fold change vs agonist alone; cytotoxicity flag (confluency mask): not cytotoxic; higher = enhanced NF-kB activity
# Outline: as §1
# [4] = agonist: ODN 1826 (TLR9) 0.5 ug/mL
# [5] = agonist: Pam2CSK4 (TLR2/6) 0.1 ug/mL
# [6] = agonist: Pam3CSK4 (TLR2/1) 0.1 ug/mL
smiles,measurement,setting,value
Nc1ncc(-c2ccnc(Nc3ccncc3)n2)c(CC2CC2)n1 (library stock concentration (final ~1000-fold dilution): 10 mM),NF-kB SEAP reporter activity,RAW-Dual [1],4.89
C=C1CC23CCC4C(C)(C(=O)O)CCCC4(C)C2CCC1C3 (stereo not given),NF-kB SEAP reporter activity,RAW-Dual [2]; agonist: Imiquimod (TLR7) […],0.739
same,NF-kB SEAP reporter activity,RAW-Dual [2]; agonist: MPLA (TLR4) […],0.753
C=C1CC23CCC4C(C)(C(=O)O)CCCC4(C)C2CCC1C3 (stereo not given) (library stock concentration (final ~1000-fold dilution): 10 mM),NF-kB SEAP reporter activity,RAW-Dual [3]; agonist: LPS (TLR4) 0.1 ug/mL,0.821
same,NF-kB SEAP reporter activity,RAW-Dual [3]; [4],0.749
same,NF-kB SEAP reporter activity,RAW-Dual [3]; [5],0.65
same,NF-kB SEAP reporter activity,RAW-Dual [3]; [6],0.646
Nc1nc(F)nc2c1ncn2C1OC(COP(=O)(O)O)C(O)C1O (stereo not given) (library stock concentration (final ~1000-fold dilution): 10 mM),NF-kB SEAP reporter activity,RAW-Dual [3]; agonist: LPS (TLR4) 0.1 ug/mL,1.14
same,NF-kB SEAP reporter activity,RAW-Dual [3]; [4],1.01
same,NF-kB SEAP reporter activity,RAW-Dual [3]; [5],1
same,NF-kB SEAP reporter activity,RAW-Dual [3]; [6],1.15
Nc1nc(F)nc2c1ncn2C1OC(COP(=O)(O)O)C(O)C1O (stereo not given),NF-kB SEAP reporter activity,RAW-Dual [2]; agonist: Imiquimod (TLR7) […],0.903
same,NF-kB SEAP reporter activity,RAW-Dual [2]; agonist: MPLA (TLR4) […],1.03
O=C(Nc1ccc2c(O)cc(S(=O)(=O)O)cc2c1)Nc1ccc2c(O)cc(S(=O)(=O)O)cc2c1,NF-kB SEAP reporter activity,RAW-Dual [2]; agonist: Imiquimod (TLR7) […],0.88
O=C(Nc1ccc2c(O)cc(S(=O)(=O)O)cc2c1)Nc1ccc2c(O)cc(S(=O)(=O)O)cc2c1 (library stock concentration (final ~1000-fold dilution): 10 mM),NF-kB SEAP reporter activity,RAW-Dual [3]; agonist: LPS (TLR4) 0.1 ug/mL,1.1 and 1.07
same,NF-kB SEAP reporter activity,RAW-Dual [3]; [4],1.24 and 1.16
same,NF-kB SEAP reporter activity,RAW-Dual [3]; [5],0.99 and 1.2
same,NF-kB SEAP reporter activity,RAW-Dual [3]; [6],0.807 and 0.482
Cn1cnc(N)c2ncnc1-2,NF-kB SEAP reporter activity,RAW-Dual [2]; agonist: Imiquimod (TLR7) […],0.984
same,NF-kB SEAP reporter activity,RAW-Dual [2]; agonist: MPLA (TLR4) […],1.03
Cn1cnc(N)c2ncnc1-2 (library stock concentration (final ~1000-fold dilution): 10 mM),NF-kB SEAP reporter activity,RAW-Dual [3]; agonist: LPS (TLR4) 0.1 ug/mL,1.02
same,NF-kB SEAP reporter activity,RAW-Dual [3]; [4],1.03
same,NF-kB SEAP reporter activity,RAW-Dual [3]; [5],0.975
same,NF-kB SEAP reporter activity,RAW-Dual [3]; [6],1.12
O=C(O)c1cc(O)c(O)c(O)c1 (library stock concentration (final ~1000-fold dilution): 10 mM),NF-kB SEAP reporter activity,RAW-Dual [3]; agonist: LPS (TLR4) 0.1 ug/mL,0.717 and 0.491
same,NF-kB SEAP reporter activity,RAW-Dual [3]; [4],0.74 and 0.383
same,NF-kB SEAP reporter activity,RAW-Dual [3]; [5],0.873 and 0.77
same,NF-kB SEAP reporter activity,RAW-Dual [3]; [6],0.346 and 0.311
CC1OC(OC2C(O)CC(OC3C(O)CC(OC4CCC5(C)C(CCC6C5CC(O)C5(C)C(C7=CC(=O)OC7)CCC65O)C4)OC3C)OC2C)CC(O)C1O (stereo not given),NF-kB SEAP reporter activity,RAW-Dual [2]; agonist: Imiquimod (TLR7) […],1.08
same,NF-kB SEAP reporter activity,RAW-Dual [2]; agonist: MPLA (TLR4) […],1.01
CC1OC(OC2C(O)CC(OC3C(O)CC(OC4CCC5(C)C(CCC6C5CC(O)C5(C)C(C7=CC(=O)OC7)CCC65O)C4)OC3C)OC2C)CC(O)C1O (stereo not given) (library stock concentration (final ~1000-fold dilution): 10 mM),NF-kB SEAP reporter activity,RAW-Dual [3]; agonist: LPS (TLR4) 0.1 ug/mL,1.25
same,NF-kB SEAP reporter activity,RAW-Dual [3]; [4],0.941
same,NF-kB SEAP reporter activity,RAW-Dual [3]; [5],1.19
same,NF-kB SEAP reporter activity,RAW-Dual [3]; [6],1.2
COCCc1ccc(OCC(O)CNC(C)C)cc1.COCCc1ccc(OCC(O)CNC(C)C)cc1.O=C(O)C(O)C(O)C(=O)O (stereo not given) (library stock concentration (final ~1000-fold dilution): 10 mM),NF-kB SEAP reporter activity,RAW-Dual [3]; agonist: LPS (TLR4) 0.1 ug/mL,1.01
same,NF-kB SEAP reporter activity,RAW-Dual [3]; [4],0.842
same,NF-kB SEAP reporter activity,RAW-Dual [3]; [5],1
same,NF-kB SEAP reporter activity,RAW-Dual [3]; [6],1.06
COCCc1ccc(OCC(O)CNC(C)C)cc1.COCCc1ccc(OCC(O)CNC(C)C)cc1.O=C(O)C(O)C(O)C(=O)O (stereo not given),NF-kB SEAP reporter activity,RAW-Dual [2]; agonist: Imiquimod (TLR7) […],0.781
same,NF-kB SEAP reporter activity,RAW-Dual [2]; agonist: MPLA (TLR4) […],0.831
Cc1c(C)c2c(c(C)c1O)CC[C@@](C)(CCC[C@H](C)CCC[C@H](C)CCCC(C)C)O2,NF-kB SEAP reporter activity,RAW-Dual [2]; agonist: Imiquimod (TLR7) […],1.62
same,NF-kB SEAP reporter activity,RAW-Dual [2]; agonist: MPLA (TLR4) […],1.64
Cc1c(C)c2c(c(C)c1O)CC[C@@](C)(CCC[C@H](C)CCC[C@H](C)CCCC(C)C)O2 (library stock concentration (final ~1000-fold dilution): 10 mM),NF-kB SEAP reporter activity,RAW-Dual [3]; agonist: LPS (TLR4) 0.1 ug/mL,0.915
same,NF-kB SEAP reporter activity,RAW-Dual [3]; [4],0.932
same,NF-kB SEAP reporter activity,RAW-Dual [3]; [5],1.1
same,NF-kB SEAP reporter activity,RAW-Dual [3]; [6],1.43
COc1cc2c(cc1OC)CN(CCc1ccc(NC(=O)c3cccc4c(=O)c5cccc(OC)c5[nH]c34)cc1)CC2 (library stock concentration (final ~1000-fold dilution): 10 mM),NF-kB SEAP reporter activity,RAW-Dual [3]; agonist: LPS (TLR4) 0.1 ug/mL,1.25
same,NF-kB SEAP reporter activity,RAW-Dual [3]; [4],0.256
same,NF-kB SEAP reporter activity,RAW-Dual [3]; [5],1.16
same,NF-kB SEAP reporter activity,RAW-Dual [3]; [6],0.826
COc1cc2c(cc1OC)CN(CCc1ccc(NC(=O)c3cccc4c(=O)c5cccc(OC)c5[nH]c34)cc1)CC2,NF-kB SEAP reporter activity,RAW-Dual [2]; agonist: Imiquimod (TLR7) […],0.954
same,NF-kB SEAP reporter activity,RAW-Dual [2]; agonist: MPLA (TLR4) […],1.02
CC(C)(O)CNc1ncc(-c2ccnc(Nc3ccncc3)n2)c(CC2CC2)n1,NF-kB SEAP reporter activity,RAW-Dual [2]; agonist: Imiquimod (TLR7) […],0.914
same,NF-kB SEAP reporter activity,RAW-Dual [2]; agonist: MPLA (TLR4) […],2.18
CC(C)(O)CNc1ncc(-c2ccnc(Nc3ccncc3)n2)c(CC2CC2)n1 (library stock concentration (final ~1000-fold dilution): 10 mM),NF-kB SEAP reporter activity,RAW-Dual [3]; agonist: LPS (TLR4) 0.1 ug/mL,4.13
same,NF-kB SEAP reporter activity,RAW-Dual [3]; [4],0.366
same,NF-kB SEAP reporter activity,RAW-Dual [3]; [5],0.814
same,NF-kB SEAP reporter activity,RAW-Dual [3]; [6],1.66
C=C(C)C1CC=C(C)CC1 (stereo not given) (library stock concentration (final ~1000-fold dilution): 10 mM),NF-kB SEAP reporter activity,RAW-Dual [3]; agonist: LPS (TLR4) 0.1 ug/mL,0.958
same,NF-kB SEAP reporter activity,RAW-Dual [3]; [4],1.01
same,NF-kB SEAP reporter activity,RAW-Dual [3]; [5],0.859
same,NF-kB SEAP reporter activity,RAW-Dual [3]; [6],0.83
C=C(C)C1CC=C(C)CC1 (stereo not given),NF-kB SEAP reporter activity,RAW-Dual [2]; agonist: Imiquimod (TLR7) […],0.834
same,NF-kB SEAP reporter activity,RAW-Dual [2]; agonist: MPLA (TLR4) […],1.05
CC(C)(C)C(O)/C=C/c1ccc2c(c1)OCO2 (stereo not given) (library stock concentration (final ~1000-fold dilution): 10 mM),NF-kB SEAP reporter activity,RAW-Dual [3]; agonist: LPS (TLR4) 0.1 ug/mL,1.13
same,NF-kB SEAP reporter activity,RAW-Dual [3]; [4],1.05
same,NF-kB SEAP reporter activity,RAW-Dual [3]; [5],1.05
same,NF-kB SEAP reporter activity,RAW-Dual [3]; [6],1.33
CC(C)(C)C(O)/C=C/c1ccc2c(c1)OCO2 (stereo not given),NF-kB SEAP reporter activity,RAW-Dual [2]; agonist: MPLA (TLR4) […],1.25
Cc1cc(N2CCOCC2)cc2[nH]c(-c3c(NCC(O)c4cccc(Cl)c4)cc[nH]c3=O)nc12 (stereo not given) (library stock concentration (final ~1000-fold dilution): 10 mM),NF-kB SEAP reporter activity,RAW-Dual [3]; [4],3.16
CC12CC3(O)OC(O1)C1(COC(=O)c4ccccc4)C3CC21OC1OC(COC(=O)c2ccccc2)C(O)C(O)C1O (stereo not given),NF-kB SEAP reporter activity,RAW-Dual [2]; agonist: Imiquimod (TLR7) […],0.925
same,NF-kB SEAP reporter activity,RAW-Dual [2]; agonist: MPLA (TLR4) […],0.987
CC12CC3(O)OC(O1)C1(COC(=O)c4ccccc4)C3CC21OC1OC(COC(=O)c2ccccc2)C(O)C(O)C1O (stereo not given) (library stock concentration (final ~1000-fold dilution): 10 mM),NF-kB SEAP reporter activity,RAW-Dual [3]; agonist: LPS (TLR4) 0.1 ug/mL,0.995
same,NF-kB SEAP reporter activity,RAW-Dual [3]; [4],0.926
same,NF-kB SEAP reporter activity,RAW-Dual [3]; [5],1.05
same,NF-kB SEAP reporter activity,RAW-Dual [3]; [6],1.21
NC(=O)NO (library stock concentration (final ~1000-fold dilution): 10 mM),NF-kB SEAP reporter activity,RAW-Dual [3]; agonist: LPS (TLR4) 0.1 ug/mL,1.09
same,NF-kB SEAP reporter activity,RAW-Dual [3]; [4],1.15
same,NF-kB SEAP reporter activity,RAW-Dual [3]; [5],1
same,NF-kB SEAP reporter activity,RAW-Dual [3]; [6],1.04
